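Cells were grown in 96-well plates and exposed to each compound for 48 hours at five concentrations; endpoints were interpolated linearly between bracketing concentrations, or set to the highest concentration if not reached. GI50 is the concentration that inhibits growth by half.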 Activity calls are given as the source filed them. No stated cut-off is given here; in the data, active = GI50 up to about 1.1 µM and inactive = higher.
Assays:
Test in all cases: NCI tumour cell line growth inhibition, 48 h
SK-MEL-5 = system: SK-MEL-5
A498 = system: A498
NCI-H23 = system: NCI-H23
HOP-92 = system: HOP-92
HCC 2998 = system: HCC 2998
SF-539 = system: SF-539
SF-295 = system: SF-295
MCF7 = system: MCF7
U-251 = system: U-251
SR = system: SR
NCI/ADR-RES = system: NCI/ADR-RES
Hs-578T = system: Hs-578T
T47D = system: T47D
LOX IMVI = system: LOX IMVI
CCRF-CEM = system: CCRF-CEM
M14 = system: M14
MDA-MB-231 = system: MDA-MB-231
SNB-75 = system: SNB-75
K562 = system: K562
SW-620 = system: SW-620
NCI-H460 = system: NCI-H460
ACHN = system: ACHN
PC-3 = system: PC-3
SK-MEL-2 = system: SK-MEL-2
SF-268 = system: SF-268
SK-OV-3 = system: SK-OV-3
RXF 393 = system: RXF 393
OVCAR-5 = system: OVCAR-5
HCT-15 = system: HCT-15
DU-145 = system: DU-145
HCT-116 = system: HCT-116
HOP-62 = system: HOP-62
COLO 205 = system: COLO 205
MOLT-4 = system: MOLT-4
KM12 = system: KM12
RPMI-8226 = system: RPMI-8226
OVCAR-3 = system: OVCAR-3
A549 = system: A549
MDA-MB-435 = system: MDA-MB-435
786-0 = system: 786-0
UACC-62 = system: UACC-62
TK-10 = system: TK-10
CAKI-1 = system: CAKI-1
UO-31 = system: UO-31
SK-MEL-28 = system: SK-MEL-28
OVCAR-4 = system: OVCAR-4
HL-60 = system: HL-60

O=C1Cc2c([nH]c3ccc(C(F)(F)F)cc23)-c2ccccc2N1
GI50 (SK-MEL-5): inactive: > 100 µM | GI50 (A498): inactive: > 100 µM | GI50 (NCI-H23): inactive: > 100 µM | GI50 (HOP-92): inactive: > 100 µM | GI50 (HCC 2998): inactive: > 100 µM | GI50 (SF-539): inactive: > 100 µM | GI50 (SF-295): inactive: 6.12 µM | GI50 (MCF7): inactive: > 100 µM | GI50 (U-251): inactive: > 100 µM | GI50 (SR): inactive: 31.3 µM | GI50 (NCI/ADR-RES): inactive: > 100 µM | GI50 (Hs-578T): inactive: > 100 µM | GI50 (T47D): inactive: > 100 µM | GI50 (LOX IMVI): inactive: > 100 µM | GI50 (CCRF-CEM): inactive: > 100 µM | GI50 (M14): inactive: > 100 µM | GI50 (MDA-MB-231): inactive: > 100 µM | GI50 (SNB-75): inactive: > 100 µM | GI50 (K562): inactive: > 100 µM | GI50 (SW-620): inactive: > 100 µM | GI50 (NCI-H460): inactive: > 100 µM | GI50 (ACHN): inactive: > 100 µM | GI50 (PC-3): inactive: > 100 µM | GI50 (SK-MEL-2): inactive: > 100 µM | GI50 (SF-268): inactive: > 100 µM | GI50 (SK-OV-3): inactive: 48 µM | GI50 (RXF 393): inactive: 83 µM | GI50 (OVCAR-5): inactive: > 100 µM | GI50 (HCT-15): > 100 µM | GI50 (DU-145): inactive: > 100 µM | GI50 (HCT-116): inactive: 3.67 µM | GI50 (HOP-62): inactive: > 100 µM | GI50 (COLO 205): inactive: > 100 µM | GI50 (MOLT-4): inactive: > 100 µM | GI50 (KM12): inactive: 4.69 µM | GI50 (RPMI-8226): inactive: > 100 µM | GI50 (OVCAR-3): inactive: 6.32 µM | GI50 (A549): inactive: 20.6 µM | GI50 (MDA-MB-435): inactive: > 100 µM | GI50 (786-0): inactive: > 100 µM | GI50 (UACC-62): inactive: > 100 µM | GI50 (TK-10): inactive: > 100 µM | GI50 (CAKI-1): inactive: > 100 µM | GI50 (UO-31): inactive: > 100 µM | GI50 (SK-MEL-28): inactive: > 100 µM | GI50 (OVCAR-4): inactive: > 100 µM | GI50 (HL-60): inactive: > 100 µM
